From PMC4525180
Substitutions are numbered along the chain they refer to. Names and notes keep the numbering of the source. Results are given in words; binding and its absence hold for the method and conditions named. Some results given as binding are weak or reduced against the parent protein; the word gives no strength. For some of these results: Tags and fused reporters may be left off the sequences shown. Values belong to the binder of their own block, whether it stands above or below them.

By UniProt entry, the sequences of proteins in these tests, tags left out.
UniProt P25454: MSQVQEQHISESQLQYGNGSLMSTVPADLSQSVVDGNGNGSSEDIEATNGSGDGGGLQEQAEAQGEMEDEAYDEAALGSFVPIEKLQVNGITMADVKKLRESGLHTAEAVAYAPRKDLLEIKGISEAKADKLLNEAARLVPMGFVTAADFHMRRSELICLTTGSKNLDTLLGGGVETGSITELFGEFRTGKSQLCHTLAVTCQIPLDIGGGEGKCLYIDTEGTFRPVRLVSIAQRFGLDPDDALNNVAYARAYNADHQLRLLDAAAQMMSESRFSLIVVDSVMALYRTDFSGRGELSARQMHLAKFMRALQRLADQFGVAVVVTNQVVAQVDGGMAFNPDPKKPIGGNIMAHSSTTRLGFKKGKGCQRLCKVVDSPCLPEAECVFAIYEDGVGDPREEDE

Columns and labels:
[1] = target: T1, FLAG-tagged Psy3 (S. cerevisiae) (UniProt Q12318); test: tandem affinity co-purification + SEC; co-expressed in E. coli; Ni-NTA (His6-Shu1), amylose (MBP-Shu2, TEV release), anti-FLAG (FLAG-Psy3), SuperDex 200 in 150 mM KCl, 4 °C
T1 sequence: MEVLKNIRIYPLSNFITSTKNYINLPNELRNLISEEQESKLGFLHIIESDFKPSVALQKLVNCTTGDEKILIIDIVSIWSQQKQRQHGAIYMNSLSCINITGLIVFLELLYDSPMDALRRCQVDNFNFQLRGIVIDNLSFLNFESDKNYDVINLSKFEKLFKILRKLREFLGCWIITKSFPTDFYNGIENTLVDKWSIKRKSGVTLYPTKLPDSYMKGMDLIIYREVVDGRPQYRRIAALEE

[2] = target: T2, (His)6-tagged Shu1 (S. cerevisiae) (UniProt P38751); test: as above
T2 sequence: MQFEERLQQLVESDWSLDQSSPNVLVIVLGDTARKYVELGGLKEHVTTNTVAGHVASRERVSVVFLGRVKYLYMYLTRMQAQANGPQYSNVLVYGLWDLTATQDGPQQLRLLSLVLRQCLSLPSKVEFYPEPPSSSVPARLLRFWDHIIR

[3] = target: T3, (His)6-tagged Rad55 (S. cerevisiae) (UniProt P38953); test: tandem affinity co-purification + SEC; co-expressed in yeast; Ni-NTA (His6-Rad55), anti-FLAG (FLAG-Rad57), Mono Q, SuperDex 200 in 300 mM KCl, with ATP and Mg2+, 4 °C
T3 sequence: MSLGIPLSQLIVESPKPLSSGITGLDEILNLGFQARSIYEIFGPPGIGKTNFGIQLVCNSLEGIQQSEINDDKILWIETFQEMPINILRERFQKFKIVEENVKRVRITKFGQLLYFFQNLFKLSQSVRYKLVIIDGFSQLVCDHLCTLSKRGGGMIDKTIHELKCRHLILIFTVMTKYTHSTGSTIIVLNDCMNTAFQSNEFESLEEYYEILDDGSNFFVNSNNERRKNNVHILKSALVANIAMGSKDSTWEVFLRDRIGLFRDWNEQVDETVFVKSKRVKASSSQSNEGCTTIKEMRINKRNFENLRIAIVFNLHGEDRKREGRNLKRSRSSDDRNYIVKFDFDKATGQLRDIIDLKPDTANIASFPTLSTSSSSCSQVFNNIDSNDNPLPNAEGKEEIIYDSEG

Rad51 (S. cerevisiae) = Rad51 (S. cerevisiae) (UniProt P25454); test: pull-down; pull-down with Rad51; set-up only in Supplementary Fig. 2b; also with Csm2–Psy3 added to Rad55–Rad57 and Rad51; both purified
[4] = target: T4, Psy3 (yeast two-hybrid fusion) (S. cerevisiae) (UniProt Q12318); test: two-hybrid; diploid yeast with AD and BD plasmids, growth on SC-LEU-TRP-HIS, 30 °C, 2 days; wild-type cells (Rad52–Rad55 also in csm2Δ cells)
T4 sequence: T1 sequence

[5] = target: T5, Rad55 (yeast two-hybrid fusion) (S. cerevisiae) (UniProt P38953); test: as above
T5 sequence: T3 sequence

[6] = target: T6, MBP-tagged Shu2 (S. cerevisiae) (UniProt P38957); test: tandem affinity co-purification + SEC; co-expressed in E. coli; Ni-NTA (His6-Shu1), amylose (MBP-Shu2, TEV release), anti-FLAG (FLAG-Psy3), SuperDex 200 in 150 mM KCl, 4 °C
T6 sequence: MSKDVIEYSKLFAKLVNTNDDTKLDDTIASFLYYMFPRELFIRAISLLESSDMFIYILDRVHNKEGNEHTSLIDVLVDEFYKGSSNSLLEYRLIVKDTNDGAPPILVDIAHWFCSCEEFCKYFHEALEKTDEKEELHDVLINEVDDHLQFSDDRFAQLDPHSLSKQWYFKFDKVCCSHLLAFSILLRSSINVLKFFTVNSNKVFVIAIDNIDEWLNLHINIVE

[7] = target: Rad51 (yeast two-hybrid fusion) (S. cerevisiae) (UniProt P25454); test: two-hybrid; diploid yeast with AD and BD plasmids, growth on SC-LEU-TRP-HIS, 30 °C, 2 days; wild-type cells (Rad52–Rad55 also in csm2Δ cells)

B1: (His)6-tagged Shu1 (protein, UniProt P38751 1-150)
chain: T2 sequence
- binding [1]: binds

B2: MBP-tagged Shu2 (protein, UniProt P38957 1-223)
chain: T6 sequence
- binding [1]: binds
- binding [2]: binds

B3: FLAG-tagged Rad57 (protein, UniProt P25301 1-460)
chain: MPRALSIKFDNTYMDLYDELPESKLLYDEEFSYLLDAVRQNGVCVVDFLTLTPKELARLIQRSINEVFRFQQLLVHEYNEKYLEICEKNSISPDNGPECFTTADVAMDELLGGGIFTHGITEIFGESSTGKSQLLMQLALSVQLSEPAGGLGGKCVYITTEGDLPTQRLESMLSSRPAYEKLGITQSNIFTVSCNDLINQEHIINVQLPILLERSKGSIKLVIIDSISHHLRVELQNKSFRESQENKNYLDRMAEKLQILAHDYSLSVVVANQVGDKPLANSPVAHRTYVTDYDYQLGWLVGWKNSTILYRQMNSLLGASSNNDEILSDDEDYMLIERVMSTVNDRNYDFFSKKKPPIIENKTVERNSSSPISRQSKKRKFDYRVPNLGLTWSNHVSTRILLQKSFKASTIIQRGEAHLYKGGDSASFWQVKRTMKVVYSTFAKPGQIAYQITKRGIETA
- binding [3]: binds

B4: Csm2–Psy3 heterodimer (complex, UniProt P40465 1-213; Q12318 1-242)
chain 1: MEYEDLELITIWPSPTKNKLCQFIKQNLSKEHVVTQLFFIDATSSFPLSQFQKLVPPTLPENVRIYENIRINTCLDLEELSAITVKLLQILSMNKINAQRGTEDAVTEPLKIILYINGLEVMFRNSQFKSSPQRSHELLRDTLLKLRVMGNDENENASIRTLLEFPKEQLLDYYLKKNNNTRTSSVRSKRRRIKNGDSLAEYIWKYYADSLFE
chain 2: T1 sequence
- binding (Rad51 (S. cerevisiae)): binds weakly

B5: Csm2 (yeast two-hybrid fusion) (protein, UniProt P40465 1-213)
chain: B4 chain 1
- binding [4]: binds
- binding [5]: binds

Other lines, results leading:

- binding [1]: binds
- binding [6]: binds
- binding [2]: binds
B6: Strep-tagged Csm2 (protein, UniProt P40465 1-213)
chain: B4 chain 1

- binding [1]: binds
- binding [6]: binds
- binding [2]: binds
B7: Strep-tagged csm2–F46A (protein, UniProt P40465 1-213)
chain: B4 chain 1 with F46A

- binding [4]: binds
- binding [5]: no binding
- binding [7]: no binding
B8: csm2–F46A (yeast two-hybrid fusion) (protein, UniProt P40465 1-213)
chain: B4 chain 1 with F46A
